# Measured values: the supplement of paper PMC8728848
# The other results are listed elsewhere or left out.
# B1: CCL1 (Coprinopsis cinerea) (protein)
# chain: MDTQAKPPAGRYVIYNRVLSPNGEKLALTYPGYQREALTLTPLHHSANQIWILNNWDATTSSLTPETARNTQVGWGSGNVPIVLPPGNYVWTLASSAGGYIIQDGGKTVYWNAGEAVANTKVSIGGDNGLQARWIFERV
# What was measured:
# Experiment in all cases: glycan array binding signal (z-score within array); higher = stronger binding
# Conditions in all cases: glycan notation: IUPAC condensed, linker removed
# [1] = biological target: Neu5Ac(a2-3)Gal(b1-4)GlcNAc(b1-6)GalNAc
# Method in brief: (§1)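 Arrays were curated from the Consortium for Functional Glycomics database, 3228 in total, and kept only where the protein sequence was available. Binding is expressed as a within-array Z-score. This score was averaged across arrays of the same protein sequence at different concentrations or buffers and across linkers, and negative values can be read as non-binding.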
# [2] = biological target: Neu5Ac(a2-3)Gal(b1-4)GlcNAc(b1-6)[Gal(b1-3)]GalNAc
# Method in brief: as §1
# [3] = biological target: Neu5Ac(a2-3)Gal(b1-4)GlcNAc(b1-6)[Neu5Ac(a2-3)Gal(b1-3)]GalNAc
# Method in brief: as §1
# [4] = biological target: Neu5Ac(a2-3)Gal(b1-4)GlcNAc6S
# Method in brief: as §1
# [5] = biological target: Neu5Ac(a2-3)Gal(b1-4)[Fuc(a1-3)]GlcNAc
# Method in brief: as §1
# [6] = biological target: Neu5Ac(a2-3)Gal(b1-4)[Fuc(a1-3)]GlcNAc(b1-3)Gal
# Method in brief: as §1
# [7] = biological target: Neu5Ac(a2-3)Gal(b1-4)[Fuc(a1-3)]GlcNAc(b1-3)Gal(b1-4)GlcNAc
# Method in brief: as §1
# [8] = biological target: Neu5Ac(a2-3)Gal(b1-4)[Fuc(a1-3)]GlcNAc(b1-3)Gal(b1-4)[Fuc(a1-3)]GlcNAc(b1-3)Gal(b1-4)[Fuc(a1-3)]GlcNAc
# Method in brief: as §1
# [9] = biological target: Neu5Ac(a2-3)Gal(b1-4)[Fuc(a1-3)]GlcNAc(b1-3)GalNAc
# Method in brief: as §1
# [10] = biological target: Neu5Ac(a2-3)Gal(b1-4)[Fuc(a1-3)]GlcNAc(b1-6)[Gal(b1-3)]GalNAc
# Method in brief: as §1
# [11] = biological target: Neu5Ac(a2-3)Gal(b1-4)[Fuc(a1-3)]GlcNAc6S
# Method in brief: as §1
# [12] = biological target: Neu5Ac(a2-3)Gal6S(b1-4)GlcNAc
# Method in brief: as §1
# [13] = biological target: Neu5Ac(a2-3)Gal6S(b1-4)[Fuc(a1-3)]GlcNAc
# Method in brief: as §1
# Neu5Ac(a2-3)GalNAc = biological target: Neu5Ac(a2-3)GalNAc
# Method in brief: as §1
# [14] = biological target: Neu5Ac(a2-3)GalNAc(b1-4)GlcNAc
# Method in brief: as §1
# [15] = biological target: Neu5Ac(a2-3)[GalNAc(b1-4)]Gal(b1-4)Glc
# Method in brief: as §1
# [16] = biological target: Neu5Ac(a2-3)[GalNAc(b1-4)]Gal(b1-4)GlcNAc
# Method in brief: as §1
# [17] = biological target: Neu5Ac(a2-3)[GalNAc(b1-4)]Gal(b1-4)GlcNAc(b1-3)GalNAc
# Method in brief: as §1
# [18] = biological target: Neu5Ac(a2-3)[Neu5Ac(a2-6)]GalNAc
# Method in brief: as §1
# Neu5Ac(a2-6)Gal = biological target: Neu5Ac(a2-6)Gal
# Method in brief: as §1
# [19] = biological target: Neu5Ac(a2-6)Gal(b1-3)GlcNAc(b1-3)[Gal(b1-4)GlcNAc(b1-6)]Gal(b1-4)Glc
# Method in brief: as §1
# Neu5Ac(a2-6)Gal(b1-4)Glc = biological target: Neu5Ac(a2-6)Gal(b1-4)Glc
# Method in brief: as §1
# [20] = biological target: Neu5Ac(a2-6)Gal(b1-4)GlcNAc
# Method in brief: as §1
# [21] = biological target: Neu5Ac(a2-6)Gal(b1-4)GlcNAc(b1-2)Man(a1-3)Man(b1-4)GlcNAc(b1-4)GlcNAc
# Method in brief: as §1
# [22] = biological target: Neu5Ac(a2-6)Gal(b1-4)GlcNAc(b1-2)Man(a1-3)[Gal(b1-4)GlcNAc(b1-2)Man(a1-6)]Man(b1-4)GlcNAc(b1-4)GlcNAc
# Method in brief: as §1
# [23] = biological target: Neu5Ac(a2-6)Gal(b1-4)GlcNAc(b1-2)Man(a1-3)[GlcNAc(b1-2)Man(a1-6)]Man(b1-4)GlcNAc(b1-4)GlcNAc
# Method in brief: as §1
# [24] = biological target: Neu5Ac(a2-6)Gal(b1-4)GlcNAc(b1-2)Man(a1-3)[GlcNAc(b1-2)Man(b1-4)GlcNAc(b1-2)Man(a1-6)]Man(b1-4)GlcNAc(b1-4)GlcNAc
# Method in brief: as §1
# [25] = biological target: Neu5Ac(a2-6)Gal(b1-4)GlcNAc(b1-2)Man(a1-3)[Man(a1-6)]Man(b1-4)GlcNAc(b1-4)GlcNAc
# Method in brief: as §1
# [26] = biological target: Neu5Ac(a2-6)Gal(b1-4)GlcNAc(b1-2)Man(a1-3)[Neu5Ac(a2-6)Gal(b1-4)GlcNAc(b1-2)Man(a1-6)]Man(b1-4)GlcNAc(b1-4)GlcNAc
# Method in brief: as §1
# [27] = biological target: Neu5Ac(a2-6)Gal(b1-4)GlcNAc(b1-2)Man(a1-3)[Neu5Ac(a2-6)Gal(b1-4)GlcNAc(b1-2)Man(a1-6)]Man(b1-4)GlcNAc(b1-4)[Fuc(a1-6)]GlcNAc
# Method in brief: as §1
# [28] = biological target: Neu5Ac(a2-6)Gal(b1-4)GlcNAc(b1-2)Man(a1-6)Man(b1-4)GlcNAc(b1-4)GlcNAc
# Method in brief: as §1
# [29] = biological target: Neu5Ac(a2-6)Gal(b1-4)GlcNAc(b1-2)Man(a1-6)[Gal(b1-4)GlcNAc(b1-2)Man(a1-3)]Man(b1-4)GlcNAc(b1-4)GlcNAc
# Method in brief: as §1
# [30] = biological target: Neu5Ac(a2-6)Gal(b1-4)GlcNAc(b1-2)Man(a1-6)[GlcNAc(b1-2)Man(a1-3)]Man(b1-4)GlcNAc(b1-4)GlcNAc
# Method in brief: as §1
# [31] = biological target: Neu5Ac(a2-6)Gal(b1-4)GlcNAc(b1-2)Man(a1-6)[Man(a1-3)]Man(b1-4)GlcNAc(b1-4)GlcNAc
# Method in brief: as §1
# [32] = biological target: Neu5Ac(a2-6)Gal(b1-4)GlcNAc(b1-3)Gal(b1-3)GlcNAc
# Method in brief: as §1
# [33] = biological target: Neu5Ac(a2-6)Gal(b1-4)GlcNAc(b1-3)Gal(b1-4)GlcNAc
# Method in brief: as §1
# [34] = biological target: Neu5Ac(a2-6)Gal(b1-4)GlcNAc(b1-3)Gal(b1-4)GlcNAc(b1-3)Gal(b1-4)GlcNAc
# Method in brief: as §1
# [35] = biological target: Neu5Ac(a2-6)Gal(b1-4)GlcNAc(b1-3)Gal(b1-4)[Fuc(a1-3)]GlcNAc(b1-3)Gal(b1-4)[Fuc(a1-3)]GlcNAc
# Method in brief: as §1
# [36] = biological target: Neu5Ac(a2-6)Gal(b1-4)GlcNAc(b1-3)GalNAc
# Method in brief: as §1
# [37] = biological target: Neu5Ac(a2-6)Gal(b1-4)GlcNAc(b1-3)[Neu5Ac(a2-6)Gal(b1-4)GlcNAc(b1-6)]GalNAc
# Method in brief: as §1
# [38] = biological target: Neu5Ac(a2-6)Gal(b1-4)GlcNAc(b1-6)GalNAc
# Method in brief: as §1
# [39] = biological target: Neu5Ac(a2-6)Gal(b1-4)GlcNAc(b1-6)[Gal(b1-3)GlcNAc(b1-3)]Gal(b1-4)Glc
# Method in brief: as §1
# [40] = biological target: Neu5Ac(a2-6)Gal(b1-4)GlcNAc6S
# Method in brief: as §1
# Neu5Ac(a2-6)GalNAc = biological target: Neu5Ac(a2-6)GalNAc
# Method in brief: as §1
# [41] = biological target: Neu5Ac(a2-6)GalNAc(b1-4)GlcNAc
# Method in brief: as §1
binder,measurement,setting,value
B1,glycan array binding signal (z-score),[1],-0.176
same,glycan array binding signal (z-score),[2],-0.136
same,glycan array binding signal (z-score),[3],-0.122
same,glycan array binding signal (z-score),[4],-0.104
same,glycan array binding signal (z-score),[5],1.14
same,glycan array binding signal (z-score),[6],3.29
same,glycan array binding signal (z-score),[7],1.16
same,glycan array binding signal (z-score),[8],1.58
same,glycan array binding signal (z-score),[9],0.072
same,glycan array binding signal (z-score),[10],0.13
same,glycan array binding signal (z-score),[11],1.12
same,glycan array binding signal (z-score),[12],0.634
same,glycan array binding signal (z-score),[13],1.5
same,glycan array binding signal (z-score),Neu5Ac(a2-3)GalNAc,-0.174
same,glycan array binding signal (z-score),[14],-0.17
same,glycan array binding signal (z-score),[15],-0.154
same,glycan array binding signal (z-score),[16],-0.135
same,glycan array binding signal (z-score),[17],-0.079
same,glycan array binding signal (z-score),[18],-0.149
same,glycan array binding signal (z-score),Neu5Ac(a2-6)Gal,-0.15
same,glycan array binding signal (z-score),[19],-0.146
same,glycan array binding signal (z-score),Neu5Ac(a2-6)Gal(b1-4)Glc,-0.133
same,glycan array binding signal (z-score),[20],-0.124
same,glycan array binding signal (z-score),[21],-0.124
same,glycan array binding signal (z-score),[22],-0.138
same,glycan array binding signal (z-score),[23],-0.088
same,glycan array binding signal (z-score),[24],-0.137
same,glycan array binding signal (z-score),[25],-0.115
same,glycan array binding signal (z-score),[26],-0.124
same,glycan array binding signal (z-score),[27],-0.158
same,glycan array binding signal (z-score),[28],-0.132
same,glycan array binding signal (z-score),[29],-0.12
same,glycan array binding signal (z-score),[30],-0.149
same,glycan array binding signal (z-score),[31],-0.139
same,glycan array binding signal (z-score),[32],-0.147
same,glycan array binding signal (z-score),[33],-0.152
same,glycan array binding signal (z-score),[34],-0.147
same,glycan array binding signal (z-score),[35],0.325
same,glycan array binding signal (z-score),[36],0.034
same,glycan array binding signal (z-score),[37],-0.128
same,glycan array binding signal (z-score),[38],-0.1
same,glycan array binding signal (z-score),[39],-0.149
same,glycan array binding signal (z-score),[40],-0.146
same,glycan array binding signal (z-score),Neu5Ac(a2-6)GalNAc,-0.161
same,glycan array binding signal (z-score),[41],-0.157
